Results: paper PMC4336329 (PLoS ONE, 2015)
Screen size: about 310,000 compounds; about 14,000 (4.5%) showed an effect of 50% or more. The effect is printed as a negative number. The list shows a part of the results.

Biological target: human ether-à-go-go-related gene (hERG) potassium channel (human, UniProt Q12809)
Assay: primary screen, population patch clamp on CHO cells stably expressing hERG
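Further: peak tail current of the secondary pulse compared with the same well before compound.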

Sequence of human ether-à-go-go-related gene (hERG) potassium channel (Q12809 whole entry, looked up): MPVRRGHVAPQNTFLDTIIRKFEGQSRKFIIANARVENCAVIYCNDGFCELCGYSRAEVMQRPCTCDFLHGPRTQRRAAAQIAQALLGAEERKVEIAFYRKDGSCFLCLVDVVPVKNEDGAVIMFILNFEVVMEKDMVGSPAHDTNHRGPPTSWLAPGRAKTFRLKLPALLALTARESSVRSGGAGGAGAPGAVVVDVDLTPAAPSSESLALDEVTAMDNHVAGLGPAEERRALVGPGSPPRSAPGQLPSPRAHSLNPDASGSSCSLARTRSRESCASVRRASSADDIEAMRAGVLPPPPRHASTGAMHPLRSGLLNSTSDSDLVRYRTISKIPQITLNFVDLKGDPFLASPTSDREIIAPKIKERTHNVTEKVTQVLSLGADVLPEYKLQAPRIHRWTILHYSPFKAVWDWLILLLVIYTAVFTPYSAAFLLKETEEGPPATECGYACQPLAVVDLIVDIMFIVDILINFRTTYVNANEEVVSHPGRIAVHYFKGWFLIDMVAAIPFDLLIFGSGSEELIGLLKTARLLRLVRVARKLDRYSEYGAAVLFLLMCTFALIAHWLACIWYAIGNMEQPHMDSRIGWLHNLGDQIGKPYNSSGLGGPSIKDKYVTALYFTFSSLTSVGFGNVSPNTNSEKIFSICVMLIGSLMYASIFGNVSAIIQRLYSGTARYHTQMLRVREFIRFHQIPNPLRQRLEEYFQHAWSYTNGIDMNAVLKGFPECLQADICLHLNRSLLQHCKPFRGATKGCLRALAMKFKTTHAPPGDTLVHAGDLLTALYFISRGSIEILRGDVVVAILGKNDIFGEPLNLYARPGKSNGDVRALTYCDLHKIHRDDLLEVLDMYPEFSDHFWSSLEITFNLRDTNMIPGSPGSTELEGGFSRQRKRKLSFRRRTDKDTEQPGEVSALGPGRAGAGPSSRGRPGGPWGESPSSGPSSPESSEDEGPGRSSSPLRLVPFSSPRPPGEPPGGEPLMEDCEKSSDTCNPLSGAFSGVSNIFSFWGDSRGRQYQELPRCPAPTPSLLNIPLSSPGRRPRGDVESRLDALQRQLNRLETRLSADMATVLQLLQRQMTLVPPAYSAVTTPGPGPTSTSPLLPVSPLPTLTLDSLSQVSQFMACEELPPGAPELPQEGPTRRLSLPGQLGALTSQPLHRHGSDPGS

Row | SMILES | hERG current change (%, negative = inhibition) at 10uM
1 | COC(=O)c1ccccc1NC(NC(=O)c1ccco1)C(=O)c1ccc(C)cc1 (centres unmarked) | 8.65%
2 | CCCOc1ccc(N2C(=O)CC(N3CCN(S(=O)(=O)c4ccccc4)CC3)C2=O)cc1 (centres unmarked) | -20.2%
3 | O=C(NCC1CC1)Nc1ccccc1 | 16.3%
4 | Cc1cc(Cl)c(S(=O)(=O)NC2CCCC2)cc1OCC(=O)NC1CCCCC1 | -7.18%
5 | Cc1cc2nc(-c3cccnc3SCC(=O)NCc3ccco3)[nH]c2cc1C | -5.15%
6 | CSc1ccccc1OCc1cc(C(=O)N(C)Cc2ccc3nsnc3c2)no1 | -6.26%
7 | Cc1nc2ccccc2c(=O)n1NCc1cccs1 | 3.57%
8 | CCc1ccccc1NC(=O)CN(C)Cc1nc(N)nc(Nc2ccccc2C)n1 | -9.54%
9 | CCn1c(C)cc(/C=C2\NC(=O)N(CC(=O)Nc3cccc(C)c3)C2=O)c1C | -2.28%
10 | COc1ccc(C(=O)Nc2cccc(-c3nc4ncccc4o3)c2C)cc1OC | 9.5%
11 | Cc1ccc(NC(=S)NCc2ccccc2Cl)c(C)c1 | 2.81%
12 | CCOC(=O)C1C(c2cccs2)NC(=O)N(C)C1(O)C(F)(F)F (centres unmarked) | 6.86%
13 | COc1cc(CNC(=O)CCCC/C=C/C(C)C)ccc1O | -1.51%
14 | COc1ccccc1NC(=O)C(C)OC(=O)CCC1CCCCC1 (centres unmarked) | -1.56%
15 | CCOc1ccccc1-n1nnnc1SCC(=O)Nc1cc2oc3ccccc3c2cc1OC | 8.28%
16 | O=C1c2ccccc2C(Nc2ccc3c(c2)OCCO3)N1Cc1ccco1 (centres unmarked) | -9.55%
17 | O=C(c1cn(-c2ccccc2)nc1-c1cc2ccccc2oc1=O)N1CCOCC1 | -49.9%
18 | COc1cc(OC)cc(C(=O)NCCc2ccc(OC)c(OC)c2)c1 | 4.31%
19 | CC(=O)NS(=O)(=O)c1ccc(NC(=O)c2ccccn2)cc1 | 18.7%

Row | SMILES | hERG current change (%, negative = inhibition) at 10uM
20 | Cc1ccc(NC(=S)NCC23C=CC(O2)C2C(=O)N(c4ccc(C)cc4)C(=O)C23)cc1 (centres unmarked) | -22%
21 | CC1CCCCC1NC(=O)CN1CCC(NC(=O)c2ccc([N+](=O)[O-])cc2)CC1 (centres unmarked) | 2.55%
22 | O=C(Cn1cnc2c(cnn2-c2ccc(Cl)cc2)c1=O)NC1CCCCC1 | 9%
23 | O=C(COC(=O)Cn1cnc2ccccc2c1=O)Nc1cc(Cl)ccc1[N+](=O)[O-] | -5.25%
24 | COc1ccc(N(C)C(=O)C2CCCN2S(=O)(=O)c2cccc3nsnc23)cc1 (centres unmarked) | -10.5%
25 | N#C/C(=C\c1ccccn1)c1ccccn1 | 12.1%
26 | CCC12CN(C(=O)c3ccco3)CC(CC)(CN(C(=O)c3ccco3)C1)C2=O | 13.6%
27 | COc1ccc(Cl)cc1S(=O)(=O)N1CCN(Cc2ccc3c(c2)OCO3)CC1 | -16%
28 | N#Cc1ccccc1OCC(=O)OCC(=O)NC1CC1 | 11.6%
29 | CC(C)c1ccc(OCC(=O)NC2=NCCS2)cc1 | 1.4%
30 | O=C(COc1ccccc1[N+](=O)[O-])Nc1cc(Cl)ccc1C(=O)O | 5.94%
31 | O=C(COC(=O)c1cccnc1Cl)Nc1ccc2c(c1)OCO2 | 2.28%
32 | CCOc1ccccc1NC(=O)C(Sc1ccccc1)c1ccccc1 (centres unmarked) | 9.32%
33 | CCCN(CC1CC1)C(=O)COC(=O)c1ccc2c(c1)C(=O)N(c1ccc(OCC)cc1)C2=O | -44.8%
34 | CCCCNC(=O)Nc1ccc2c(c1)N(C)C(=O)c1ccccc1S2 | 19.7%
35 | COc1ccc(S(=O)(=O)c2cnc3ccccc3n2)cc1 | 11.7%
36 | CCc1ccccc1NC(=S)NN | 24.6%
37 | O=C(CC1SC(=O)N(Cc2ccc(Cl)cc2)C1=O)Nc1nccs1 (centres unmarked) | -4.51%
38 | COCCC(=O)N1CCC(Oc2ccc(C(=O)N3CCCCC3COC)cc2)CC1 (centres unmarked) | 17.2%

Row | SMILES | hERG current change (%, negative = inhibition) at 10uM
39 | Cc1cc(=O)[nH]c(SCC(=O)N2CCN(S(=O)(=O)c3ccccc3)C2)n1 | 2.92%
40 | O=C(/C=C/c1ccc(F)cc1)Nc1nc2ccccc2[nH]1 | -18.7%
41 | CCOCCCNC(=O)c1ccc(-n2c(=S)[nH]c3ccccc3c2=O)cc1 | 10.8%
42 | CCN(CC)S(=O)(=O)c1ccc(NC(=O)CSc2cccc[n+]2[O-])cc1 | -10.7%
43 | CC(=O)N1c2ccc(F)c(F)c2C[C@H]1C | 16.2%
44 | CN(CCCC(=O)O)c1ccc(N=Nc2ccc([N+](=O)[O-])cc2)cc1 | 14.8%
45 | COc1ccc(OC)c(Nc2ccc(C(=O)O)cc2[N+](=O)[O-])c1 | 9.47%
46 | Cc1cc(C)nc(-n2ncc3c2CC(c2ccccc2C)CC3=O)n1 (centres unmarked) | -6.94%
47 | COC(c1ccccc1)c1nnc(CCC(=O)N2CCN(CCOc3ccccc3)CC2)o1 (centres unmarked) | -19.1%
48 | CCOc1ccc(-c2nn(-c3ccccc3)cc2/C=C2\SC(N)=NC2=O)cc1C | 11.2%
49 | Cn1c(=O)c2c(nc(NCCCN3CCOCC3)n2Cc2cccc(Cl)c2)n(C)c1=O | -9.57%
50 | Cc1cccc(N2CCC(NCc3c(C(=O)N4CCCCC4)nc4c(C)cccn34)CC2)c1 | -46.6%
51 | Cc1cccc(C#N)c1 | 8.77%
52 | C=CCCN(C(CC(C)C)C(=O)OC)S(=O)(=O)c1ccccc1Br (centres unmarked) | 1.66%
53 | CCC(=O)NC(=S)Nc1cccc(NC(=O)c2ccccc2Cl)c1 | -0.673%
54 | COc1cc2c(cc1O)C[C@H]1c3c(cc(O)c(OC)c3-2)CCN1C | -70.1%
55 | CN(C)c1ccc(/C=N/NC(=O)c2nnn(-c3nonc3N)c2CN(C)c2ccccc2)cc1 | 4.74%
56 | O=C(CN1CCCCC1)Nc1nc(-c2ccc(Cl)cc2)cs1 | 4.65%
